{
  "source": "the supplement of paper PMC8728848",
  "binders": {"B1": {"name": "Na-CTL-1 (Necator americanus) (protein)", "chain": "MQRSFLLLLVVLAGAWAVNTTIPLKLMGGFTPMKYQCVGRVSDIWADVLFLIESSDMITKSGFRQVIAFITATTKKMTIGQDEKQTRVGFITYGEEAKLIYDLDHWRSTEKLSDLVQKIPYVKSSGTNIAAAIALANKVFNSPTHRPNVPKVMVIVANGLKKGSQNPIPVATAFKDFGGIIITIEYTQYDNIQVPILKKIASEGYNIRSNDEDFSVRTLTNMLLQANCFCPDHYVPFRVNNPEFGCFVTAKIPSMWRDAAEMCRAVEEGKLVKVENEEKAAFIMKLVGPKKEAWIGLRYYGNKFQWTDGTKLNADDFNLWPEDIKELNGPHCVSMYQDQKDKKYYWRAGKCLEDMRYVCEVQPCSASNYCSEPVFMYRQKHRALLPAPPPPPN"}},
  "assay_in_all_cases": "glycan array binding signal (z-score within array); higher = stronger binding",
  "settings_in_all_cases": "glycan notation: IUPAC condensed, linker removed",
  "key": {"[1]": {"biological_target": "Fuc(a1-2)[GalNAc(a1-3)]Gal(b1-3)GlcNAc(b1-6)GalNAc", "method_in_brief": "(§1)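 The Consortium for Functional Glycomics database supplied 3228 glycan arrays, of which those lacking an available protein sequence were dropped. The binding signal, a within-array Z-score, was averaged across arrays of the same protein sequence and across linkers. Negative scores can be read as non-binding.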"}, "[2]": {"biological_target": "Fuc(a1-2)[GalNAc(a1-3)]Gal(b1-4)Glc", "method_in_brief": "as §1"}, "[3]": {"biological_target": "Fuc(a1-2)[GalNAc(a1-3)]Gal(b1-4)GlcNAc", "method_in_brief": "as §1"}, "[4]": {"biological_target": "Fuc(a1-2)[GalNAc(a1-3)]Gal(b1-4)GlcNAc(b1-2)Man", "method_in_brief": "as §1"}, "[5]": {"biological_target": "Fuc(a1-2)[GalNAc(a1-3)]Gal(b1-4)GlcNAc(b1-2)Man(a1-3)[Fuc(a1-2)[GalNAc(a1-3)]Gal(b1-4)GlcNAc(b1-2)Man(a1-6)]Man(b1-4)GlcNAc(b1-4)GlcNAc", "method_in_brief": "as §1"}, "[6]": {"biological_target": "Fuc(a1-2)[GalNAc(a1-3)]Gal(b1-4)GlcNAc(b1-2)Man(a1-3)[Fuc(a1-2)[GalNAc(a1-3)]Gal(b1-4)GlcNAc(b1-2)Man(a1-6)]Man(b1-4)GlcNAc(b1-4)[Fuc(a1-6)]GlcNAc", "method_in_brief": "as §1"}, "[7]": {"biological_target": "Fuc(a1-2)[GalNAc(a1-3)]Gal(b1-4)GlcNAc(b1-3)Gal(b1-4)GlcNAc", "method_in_brief": "as §1"}, "[8]": {"biological_target": "Fuc(a1-2)[GalNAc(a1-3)]Gal(b1-4)GlcNAc(b1-3)Gal(b1-4)GlcNAc(b1-3)Gal(b1-4)GlcNAc", "method_in_brief": "as §1"}, "[9]": {"biological_target": "Fuc(a1-2)[GalNAc(a1-3)]Gal(b1-4)GlcNAc(b1-3)GalNAc", "method_in_brief": "as §1"}, "[10]": {"biological_target": "Fuc(a1-2)[GalNAc(a1-3)]Gal(b1-4)GlcNAc(b1-3)[Fuc(a1-2)[GalNAc(a1-3)]Gal(b1-4)GlcNAc(b1-6)]GalNAc", "method_in_brief": "as §1"}, "[11]": {"biological_target": "Fuc(a1-2)[GalNAc(a1-3)]Gal(b1-4)GlcNAc(b1-6)GalNAc", "method_in_brief": "as §1"}, "[12]": {"biological_target": "Fuc(a1-2)[GalNAc(a1-3)]Gal(b1-4)[Fuc(a1-3)]GlcNAc", "method_in_brief": "as §1"}, "[13]": {"biological_target": "Fuc(a1-2)[GalNAc(a1-3)]Gal(b1-4)[Fuc(a1-3)]GlcNAc(b1-3)GalNAc", "method_in_brief": "as §1"}, "[14]": {"biological_target": "Fuc(a1-2)[GalNAc(a1-4)]Gal(b1-4)GlcNAc", "method_in_brief": "as §1"}, "[15]": {"biological_target": "Fuc(a1-2)[GalNAc(b1-3)]Gal", "method_in_brief": "as §1"}, "Fuc(a1-3)GlcNAc": {"biological_target": "Fuc(a1-3)GlcNAc", "method_in_brief": "as §1"}, "[16]": {"biological_target": "Fuc(a1-3)[Gal(b1-4)]Glc6S", "method_in_brief": "as §1"}, "[17]": {"biological_target": "Fuc(a1-3)[Gal(b1-4)]GlcNAc", "method_in_brief": "as §1"}, "[18]": {"biological_target": "Fuc(a1-3)[Gal(b1-4)]GlcNAc(b1-2)Man", "method_in_brief": "as §1"}, "[19]": {"biological_target": "Fuc(a1-3)[Gal(b1-4)]GlcNAc(b1-2)Man(a1-3)[Fuc(a1-3)[Gal(b1-4)]GlcNAc(b1-2)Man(a1-6)]Man(b1-4)GlcNAc(b1-4)GlcNAc", "method_in_brief": "as §1"}, "[20]": {"biological_target": "Fuc(a1-3)[Gal(b1-4)]GlcNAc(b1-2)Man(a1-3)[Fuc(a1-3)[Gal(b1-4)]GlcNAc(b1-2)Man(a1-6)]Man(b1-4)GlcNAc(b1-4)[Fuc(a1-6)]GlcNAc", "method_in_brief": "as §1"}, "[21]": {"biological_target": "Fuc(a1-3)[Gal(b1-4)]GlcNAc(b1-3)Gal(b1-3)[Fuc(a1-4)]GlcNAc", "method_in_brief": "as §1"}, "[22]": {"biological_target": "Fuc(a1-3)[Gal(b1-4)]GlcNAc(b1-3)Gal(b1-4)[Fuc(a1-3)]GlcNAc", "method_in_brief": "as §1"}, "[23]": {"biological_target": "Fuc(a1-3)[Gal(b1-4)]GlcNAc(b1-3)Gal(b1-4)[Fuc(a1-3)]GlcNAc(b1-3)Gal(b1-4)[Fuc(a1-3)]GlcNAc", "method_in_brief": "as §1"}, "[24]": {"biological_target": "Fuc(a1-3)[Gal(b1-4)]GlcNAc(b1-3)GalNAc", "method_in_brief": "as §1"}, "[25]": {"biological_target": "Fuc(a1-3)[Gal(b1-4)]GlcNAc(b1-6)GalNAc", "method_in_brief": "as §1"}, "[26]": {"biological_target": "Fuc(a1-3)[Gal(b1-4)]GlcNAc(b1-6)[Gal(b1-3)GlcNAc(b1-3)]Gal(b1-4)Glc", "method_in_brief": "as §1"}, "[27]": {"biological_target": "Fuc(a1-3)[Gal(b1-4)]GlcNAc6S", "method_in_brief": "as §1"}, "[28]": {"biological_target": "Fuc(a1-3)[Gal3S(b1-4)]Glc", "method_in_brief": "as §1"}, "[29]": {"biological_target": "Fuc(a1-3)[Gal3S(b1-4)]GlcNAc", "method_in_brief": "as §1"}, "[30]": {"biological_target": "Fuc(a1-3)[Gal3S(b1-4)]GlcNAc6S", "method_in_brief": "as §1"}, "[31]": {"biological_target": "Fuc(a1-3)[GalNAc(b1-4)]GlcNAc", "method_in_brief": "as §1"}, "[32]": {"biological_target": "Fuc(a1-3)[GalNAc(b1-4)]GlcNAc6S", "method_in_brief": "as §1"}, "Fuc(a1-4)GlcNAc": {"biological_target": "Fuc(a1-4)GlcNAc", "method_in_brief": "as §1"}, "Fuc(b1-3)GlcNAc": {"biological_target": "Fuc(b1-3)GlcNAc", "method_in_brief": "as §1"}, "Gal(a1-2)Gal": {"biological_target": "Gal(a1-2)Gal", "method_in_brief": "as §1"}, "Gal(a1-3)Gal": {"biological_target": "Gal(a1-3)Gal", "method_in_brief": "as §1"}},
  "note": "This is one part of the list.",
  "data": [
    {"binder": "B1", "values": [
      {"measurement": "glycan array binding signal (z-score)", "setting": "[1]", "result": -0.297},
      {"measurement": "glycan array binding signal (z-score)", "setting": "[2]", "result": -0.474},
      {"measurement": "glycan array binding signal (z-score)", "setting": "[3]", "result": -0.289},
      {"measurement": "glycan array binding signal (z-score)", "setting": "[4]", "result": -0.44},
      {"measurement": "glycan array binding signal (z-score)", "setting": "[5]", "result": -0.549},
      {"measurement": "glycan array binding signal (z-score)", "setting": "[6]", "result": -0.52},
      {"measurement": "glycan array binding signal (z-score)", "setting": "[7]", "result": -0.187},
      {"measurement": "glycan array binding signal (z-score)", "setting": "[8]", "result": 0.261},
      {"measurement": "glycan array binding signal (z-score)", "setting": "[9]", "result": -0.291},
      {"measurement": "glycan array binding signal (z-score)", "setting": "[10]", "result": -0.755},
      {"measurement": "glycan array binding signal (z-score)", "setting": "[11]", "result": -0.318},
      {"measurement": "glycan array binding signal (z-score)", "setting": "[12]", "result": -0.16},
      {"measurement": "glycan array binding signal (z-score)", "setting": "[13]", "result": 14.8},
      {"measurement": "glycan array binding signal (z-score)", "setting": "[14]", "result": 0.383},
      {"measurement": "glycan array binding signal (z-score)", "setting": "[15]", "result": -0.162},
      {"measurement": "glycan array binding signal (z-score)", "setting": "Fuc(a1-3)GlcNAc", "result": -0.392},
      {"measurement": "glycan array binding signal (z-score)", "setting": "[16]", "result": 0.865},
      {"measurement": "glycan array binding signal (z-score)", "setting": "[17]", "result": 0.32},
      {"measurement": "glycan array binding signal (z-score)", "setting": "[18]", "result": 0.208},
      {"measurement": "glycan array binding signal (z-score)", "setting": "[19]", "result": -0.397},
      {"measurement": "glycan array binding signal (z-score)", "setting": "[20]", "result": -0.311},
      {"measurement": "glycan array binding signal (z-score)", "setting": "[21]", "result": -0.356},
      {"measurement": "glycan array binding signal (z-score)", "setting": "[22]", "result": -0.001},
      {"measurement": "glycan array binding signal (z-score)", "setting": "[23]", "result": -0.504},
      {"measurement": "glycan array binding signal (z-score)", "setting": "[24]", "result": -0.617},
      {"measurement": "glycan array binding signal (z-score)", "setting": "[25]", "result": 0.681},
      {"measurement": "glycan array binding signal (z-score)", "setting": "[26]", "result": -0.205},
      {"measurement": "glycan array binding signal (z-score)", "setting": "[27]", "result": -0.11},
      {"measurement": "glycan array binding signal (z-score)", "setting": "[28]", "result": -0.425},
      {"measurement": "glycan array binding signal (z-score)", "setting": "[29]", "result": -0.075},
      {"measurement": "glycan array binding signal (z-score)", "setting": "[30]", "result": -0.594},
      {"measurement": "glycan array binding signal (z-score)", "setting": "[31]", "result": 0.806},
      {"measurement": "glycan array binding signal (z-score)", "setting": "[32]", "result": 0.068},
      {"measurement": "glycan array binding signal (z-score)", "setting": "Fuc(a1-4)GlcNAc", "result": 13.6},
      {"measurement": "glycan array binding signal (z-score)", "setting": "Fuc(b1-3)GlcNAc", "result": 0.303},
      {"measurement": "glycan array binding signal (z-score)", "setting": "Gal(a1-2)Gal", "result": -0.633},
      {"measurement": "glycan array binding signal (z-score)", "setting": "Gal(a1-3)Gal", "result": -0.519}
    ]}
  ]
}
